# This is one part of the list. The list includes weakly bound sequences.
# Target: MaxL homodimer (UniProt P61244)
# Test: universal protein-binding microarray (PBM)
# Details: PBS-based mixture, 10 nM His-tagged protein dimer, 2% milk, 200 ng/uL BSA, 50 ng/uL salmon testes DNA, 0.02% TX-100; detection with Alexa 488 anti-His …; high values mean tight binding; most listed sequences are background and not binding sites; double strand, one strand shown
# Chain of UniProt P61244 (P61244 whole entry): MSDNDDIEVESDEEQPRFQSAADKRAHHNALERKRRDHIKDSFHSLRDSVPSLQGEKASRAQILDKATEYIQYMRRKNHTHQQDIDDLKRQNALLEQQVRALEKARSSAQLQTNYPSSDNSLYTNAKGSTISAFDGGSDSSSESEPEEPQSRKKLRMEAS
row,Sequence,binding signal (normalized occupancy)
1,GCCCCTCA,0.0781
2,CTAGGGGA,0.0747
3,ATCCCGAC,0.0749
4,AAGGGGTC,0.0773
5,ATGAAGAG,0.0796
6,GGCGATAC,0.0716
7,ACCGTAAG,0.07
8,ACATCCCT,0.0769
9,CATAGTAG,0.081
10,TGAATGAA,0.0801
11,GGACTTCA,0.0774
12,CAATGGTC,0.0779
13,AATCAGGC,0.0752
14,GTGACTTA,0.0816
15,CAATAAAC,0.0734
16,GCATGCCA,0.108
17,CAGTATCA,0.0858
18,CGTGTCGC,0.083
19,CTCTACGA,0.0744
20,AAACCCGC,0.0756
21,AAACGACG,0.0765
22,ATACTTGA,0.0771
23,ATGTTGGC,0.0836
24,ACGTGAGA,0.0981
25,TATACTGA,0.0751

row,Sequence,binding signal (normalized occupancy)
1,ATTGGCAC,0.0807
2,AGAGCGCC,0.0677
3,TGAGTCCA,0.0763
4,GTTGAAAC,0.0696
5,GCGCTATA,0.0753
6,ATGGGGCC,0.084
7,AGTTGACA,0.0728
8,CGGCCCTC,0.0703
9,AGCTCTGG,0.0678
10,AACGATGC,0.0755
11,GATTCGGC,0.0703
12,GACGACAA,0.0733
13,CAGGGACA,0.0703
14,CGAACGCC,0.0735
15,AAGGTCGG,0.07
16,CGCTCGAC,0.0728
17,CGGCAAGA,0.0698
18,AGGCCCCC,0.0661
19,CCAGGATA,0.0788
20,CAATGTCA,0.0758
21,CTCAAAGA,0.074
22,CTGATTAC,0.08
23,GCGCGCGC,0.0821
24,AAAGGGGC,0.0711
25,TGGATGAA,0.0769

row,Sequence,binding signal (normalized occupancy)
1,GCGTCTGA,0.0708
2,GCTCTGAC,0.0706
3,ACATCTGG,0.0804
4,CGTTGGTA,0.0734
5,CTTCGGCC,0.0673
6,AACTCATA,0.0781
7,ACCATAGT,0.0797
8,ATATGTCG,0.0832
9,CCACAATC,0.0772
10,CAGTCGCC,0.0682
11,AAAGGTAG,0.0752
12,ATCTTACC,0.0753
13,GTGCATGA,0.0961
14,ATTATAGG,0.077
15,GACTTCAC,0.0759
16,CCTTGTTC,0.0732
17,CAGACCGG,0.0667
18,ACGGCTCC,0.0698
19,CCGCCATA,0.0852
20,GCAAAAAA,0.0748
21,CCTACTTA,0.0756
22,AAACCTTT,0.0724
23,CGATACTC,0.0759
24,CGAGGTGA,0.0813
25,ACTCCGCC,0.0702

row,Sequence,binding signal (normalized occupancy)
1,GGTCATGA,0.0834
2,GGTCCGAA,0.0746
3,AATGTGCA,0.0888
4,CAGTTGCA,0.0721
5,ATGAAAGC,0.0784
6,GATCATTA,0.0838
7,CCTACGAC,0.072
8,GCCGTGAC,0.0747
9,TCTTAGCA,0.0782
10,ATGCTGAG,0.0819
11,TATGACCA,0.0767
12,ATGCATAC,0.0887
13,GAATGTAC,0.0769
14,CGATTGGC,0.0736
15,GGACATTA,0.085
16,GTCAGATA,0.0773
17,GCCATAAA,0.0813
18,ACTAAGAT,0.0689
19,CGTCCTCA,0.0791
20,GGCTAGAA,0.0727
21,AACTAAAG,0.0697
22,ATAGCGCC,0.0747
23,ATTATACA,0.0831
24,TGACAGCA,0.0803
25,AACGTGGA,0.115

row,Sequence,binding signal (normalized occupancy)
1,GAGACGAA,0.0673
2,GCGCGAAC,0.0712
3,CAGAGGAA,0.0684
4,ATTGACAG,0.0739
5,TAAAGTCA,0.0763
6,GGATGAAA,0.0731
7,CAATCTCG,0.0753
8,CCCAGCGG,0.068
9,GTCGAAGA,0.0714
10,CAGGGAAG,0.0792
11,ATTTGAAG,0.0761
12,CTACTCAG,0.0693
13,CCACTCCG,0.0733
14,CTAGTTAA,0.0755
15,ACCCTTAG,0.0693
16,AGAGACCG,0.072
17,GCGGAAGA,0.0683
18,ACCACGAT,0.0936
19,AGTGTCAC,0.0806
20,AACACACT,0.0856
21,GGATCTAC,0.0757
22,ATAGTTCA,0.073
23,GCGCTCAA,0.0703
24,AGATGACC,0.0777
25,AAAGGTTG,0.074

row,Sequence,binding signal (normalized occupancy)
1,GACAATGC,0.0818
2,ATGGTGTG,0.0899
3,ACTATCAG,0.0778
4,AAGTCGAC,0.0703
5,CCCCTTCA,0.0836
6,GGTGCAGA,0.0738
7,ACATATGG,0.0977
8,CGCTACCA,0.0744
9,ATGATTTC,0.0798
10,AAGATAAG,0.0782
11,AAAATCCG,0.0752
12,GATAGAAC,0.0781
13,CTACAGCA,0.0757
14,GCGTATAC,0.0802
15,ACGAGCAT,0.0893
16,ATTGGCCG,0.0716
17,ACAGCCTA,0.0773
18,ACCTAGCG,0.0753
19,CCAGCCGG,0.0652
20,CAGGAGAC,0.0746
21,CCACATGC,0.163
22,CAAGATCG,0.0763
23,ATAAACTC,0.0764
24,GCATGGGA,0.0967
25,ACCTTAGC,0.0788

row,Sequence,binding signal (normalized occupancy)
1,AAGCGTTG,0.076
2,AGGCATTG,0.0775
3,ACCCCAGG,0.0797
4,AAGAGAGT,0.0755
5,CCTGTAGC,0.0715
6,CCACTTTC,0.0756
7,AACCTCAC,0.0803
8,AGGGTTAT,0.0796
9,CTCCACTC,0.0775
10,CTACGTGA,0.0799
11,AGGGTCAC,0.0776
12,GAGTCATC,0.0754
13,GAGCCGCA,0.0693
14,ACATAACG,0.0824
15,GTTGGGTA,0.0776
16,GCATACCC,0.0825
17,CTCTTGTC,0.0714
18,CGAATCCA,0.0805
19,CAAGCGAC,0.0732
20,GCTTCCAC,0.0784
21,CGGCATAG,0.0745
22,ACGTAAAC,0.0734

# From article PMC4242493
